# Reference: the antibiotic and cytotoxicity screens of Wong et al. (2023)
# This is one part of the list.
# Key:
# HSkMC = human skeletal muscle cells; experiment: cytotoxicity call (relative viability < 0.9); conditions: 10 µM
# HepG2 = experiment: cytotoxicity call (relative viability < 0.9); conditions: 10 µM
# S. aureus RN4220 = experiment: growth inhibition call (relative growth <= 0.2); conditions: 50 µM
SMILES,cytotoxicity call (HSkMC),cytotoxicity call (HepG2),growth inhibition call (S. aureus RN4220)
Cc1c(OCC(F)(F)F)ccnc1CS(=O)c1nc2ccccc2[nH]1 (stereo not drawn),inactive,inactive,inactive
O=C(C[C@H]1CC[C@H]2[C@@H](COC[C@H](O)CN2C(=O)Nc2ccc(C(F)(F)F)cc2)O1)NCCc1ccncc1,inactive,inactive,active
C[C@H](CO)N1C[C@H](C)[C@H](CN(C)C(=O)Nc2ccc(C(F)(F)F)cc2)Oc2c(NC(=O)c3ccc(-c4nccs4)cc3)cccc2C1=O,inactive,inactive,inactive
Cc1ccc(S[C@]2(C(=O)NCCCN(C)C)CC(=O)N(C3CCCCC3)[C@@H]2c2ccc(CO)cc2I)cc1,inactive,inactive,inactive
COc1cccc(S(=O)(=O)Nc2ccc3c(c2)[C@H]2C[C@@H](CC(=O)NCCc4ccccc4)O[C@H](CO)[C@H]2O3)c1,active,inactive,inactive
Cc1noc(C)c1S(=O)(=O)Nc1ccc2c(c1)C(=O)N([C@H](C)CO)C[C@@H](C)[C@H](CN(C)S(=O)(=O)c1cccs1)O2,inactive,inactive,inactive
C[C@@H]1CN([C@@H](C)CO)C(=O)c2cccc(NS(C)(=O)=O)c2O[C@@H]1CN(C)C(=O)Nc1ccc2c(c1)OCO2,inactive,inactive,inactive
C[C@@H]1CCCCO[C@H](CN(C)C(=O)Nc2ccc(C(F)(F)F)cc2)[C@H](C)CN([C@H](C)CO)C(=O)c2cc(NC(=O)CCC(F)(F)F)ccc2O1,inactive,inactive,inactive
C[C@H]1CN([C@@H](C)CO)C(=O)Cc2cc(N(C)C)ccc2O[C@H]1CN(C)S(=O)(=O)c1ccc(Cl)cc1,inactive,active,inactive
COCCOC(=O)N1C(=O)[C@@]2(c3ccccc31)[C@H](c1ccccc1OCCO)N1[C@H](c3ccccc3)[C@H](c3ccccc3)OC(=O)[C@H]1[C@@H]2C(=O)N1CCc2cc(OC)c(OC)cc2C1,inactive,inactive,inactive
C=CC[C@H](CC(=O)N(CCO)Cc1ccccc1)C(=O)N[C@H](COC(=O)[C@H](CC=C)NC(=O)OCC1c2ccccc2-c2ccccc21)C(C)(C)C,inactive,inactive,inactive
O=c1c2c(c1=O)N(CCP(=O)(O)O)CCCN2,inactive,inactive,inactive
CC(C)NC(=O)Nc1ccc2c(c1)C(=O)N([C@H](C)CO)C[C@H](C)[C@@H](CN(C)Cc1ccc(Cl)c(Cl)c1)OCCCC[C@H](C)O2,inactive,inactive,inactive
C[C@H](CO)N1C[C@H](C)[C@H](CN(C)S(=O)(=O)c2cccs2)Oc2c(NS(C)(=O)=O)cccc2C1=O,inactive,inactive,inactive
C[C@H](CO)N1C[C@H](C)[C@H](CN(C)C(=O)Nc2ccc(F)cc2)Oc2c(NC(=O)Nc3cccc4ccccc34)cccc2C1=O,inactive,active,inactive
Oc1ccc2ccccc2c1,inactive,inactive,inactive
C[C@H](CO)N1C[C@H](C)[C@H](CN(C)Cc2ccc(Cl)c(Cl)c2)Oc2ccc(NC(=O)Nc3ccc4c(c3)OCO4)cc2CC1=O,active,active,inactive
C[C@@H]1CCCCO[C@H](CN(C)C(=O)CCCN(C)C)[C@@H](C)CN([C@@H](C)CO)C(=O)c2cc(NC(=O)Nc3ccc(C(F)(F)F)cc3)ccc2O1,inactive,inactive,inactive
COC1=C(OC)C(=O)C(C/C=C(\C)CC/C=C(\C)CC/C=C(\C)CC/C=C(/C)CC/C=C(\C)CC/C=C(\C)CC/C=C(\C)CC/C=C(\C)CC/C=C(\C)CCC=C(C)C)=C(C)C1=O,inactive,inactive,inactive

SMILES,cytotoxicity call (HSkMC),cytotoxicity call (HepG2),growth inhibition call (S. aureus RN4220)
C[C@H](CO)N1C[C@H](C)[C@@H](CN(C)S(=O)(=O)c2cccs2)Oc2ccc(NC(=O)CCN3CCOCC3)cc2CC1=O,inactive,inactive,inactive
C[C@@H]1CN([C@@H](C)CO)C(=O)c2cc(NS(=O)(=O)c3ccc(F)cc3)ccc2O[C@@H](C)CCCCO[C@@H]1CN(C)C(=O)Nc1ccccc1,inactive,inactive,inactive
C[C@@H]1CN([C@@H](C)CO)C(=O)CCCn2cc(nn2)CO[C@H]1CN(C)S(C)(=O)=O,inactive,inactive,inactive
CC(C)NC(=O)Nc1ccc2c(c1)C(=O)N([C@H](C)CO)C[C@H](C)[C@@H](CN(C)S(=O)(=O)c1ccccc1)O2,inactive,inactive,inactive
CC(C)(C)NCC(O)COc1cccc2c1CC(O)C(O)C2 (stereo not drawn),inactive,inactive,inactive
C[C@H](CO)N1C[C@H](C)[C@@H](CN(C)S(=O)(=O)c2cn(C)cn2)OCCCC[C@H](C)Oc2ccc(NS(C)(=O)=O)cc2C1=O,inactive,inactive,inactive
C[C@H]1CN([C@@H](C)CO)S(=O)(=O)c2ccc(C#CC3CCCCC3)cc2O[C@@H]1CN(C)C(=O)Cc1ccncc1,inactive,inactive,inactive
CO[C@@]1(NC(=O)[C@@H](C(=O)O)c2ccc(O)cc2)C(=O)N2C(C(=O)O)=C(CSc3nnnn3C)CO[C@@H]21,inactive,inactive,inactive
C[C@@H]1CN([C@H](C)CO)C(=O)c2cccc(NS(C)(=O)=O)c2O[C@H]1CN(C)Cc1ccc(C(=O)O)cc1,inactive,inactive,inactive
CC(O)(P(=O)([O-])O)P(=O)([O-])O.[Na+].[Na+],inactive,inactive,inactive
CC1=NC[C@H](O)[C@@H](C(=O)O)N1,inactive,inactive,inactive
CN(C)CC(=O)N[C@@H]1C=C[C@@H](CC(=O)O)O[C@@H]1CO,inactive,inactive,inactive
CCC(=O)Nn1c(C)nnc1C,inactive,inactive,inactive
C[C@@H]1CCCCO[C@H](CN(C)Cc2ccc(Cl)c(Cl)c2)[C@@H](C)CN([C@H](C)CO)C(=O)c2cc(NC(=O)C3CCCCC3)ccc2O1,inactive,inactive,inactive
COc1ccccc1NC(=O)N(C)C[C@@H]1OCc2ccccc2-c2c(n(C)c3ccccc23)C(=O)N([C@H](C)CO)C[C@@H]1C,inactive,inactive,inactive
C[C@@H]1CCCCO[C@H](CN(C)S(=O)(=O)c2ccc(Cl)cc2)[C@@H](C)CN([C@H](C)CO)C(=O)c2cc(NC(=O)c3ccncc3)ccc2O1,inactive,inactive,inactive
Cc1noc(C)c1NC(=O)N(C)C[C@H]1Oc2ccc(NC(=O)c3ccncc3)cc2C(=O)N([C@@H](C)CO)C[C@H]1C,inactive,inactive,inactive
C[C@@H]1CN([C@@H](C)CO)C(=O)c2cc(NC(=O)Nc3ccccc3)ccc2O[C@@H](C)CCCCO[C@@H]1CN(C)S(=O)(=O)c1cccs1,inactive,inactive,inactive
COc1ccc2c(c1OC)C(=O)OC2C1c2c(cc3c(c2OC)OCO3)CCN1C.Cl (stereo not drawn),inactive,active,inactive

SMILES,cytotoxicity call (HSkMC),cytotoxicity call (HepG2),growth inhibition call (S. aureus RN4220)
C[C@@H]1CN([C@H](C)CO)C(=O)c2cccc(NS(C)(=O)=O)c2O[C@@H]1CN(C)Cc1ccc(C(=O)Nc2ccccc2N)cc1,inactive,inactive,inactive
C[C@@H]1CN([C@H](C)CO)C(=O)c2cc(NC(=O)Cc3ccccc3)ccc2O[C@@H]1CN(C)S(=O)(=O)c1ccccc1,inactive,inactive,inactive
CC(C)(C)[S@@](=O)N1Cc2cc(C(=O)NCc3ccc4c(c3)OCO4)nc(CCN3CCOCC3)c2[C@H]1CCO,inactive,inactive,inactive
CC1(C)OC2CC3C4CC(F)C5=CC(=O)C=CC5(C)C4(F)C(O)CC3(C)C2(C(=O)CO)O1 (stereo not drawn),inactive,inactive,inactive
COc1ccc(C(=O)c2ccccc2O)c(O)c1,inactive,inactive,inactive
C[C@H]1CN([C@@H](C)CO)C(=O)Cc2cc(NC(=O)Nc3cccc(C(F)(F)F)c3)ccc2O[C@H]1CN(C)S(=O)(=O)c1ccc(Oc2ccccc2)cc1,inactive,active,inactive
C[C@H](CO)N1C[C@H](C)[C@@H](CN(C)C(=O)Nc2ccc(F)cc2)Oc2c(NC(=O)c3nc4ccccc4s3)cccc2C1=O,inactive,inactive,inactive
COc1ccccc1N=C(NO)c1nonc1N,inactive,inactive,inactive
CCc1cn(C2OCC(O)C2CO)c(=O)nc1O (stereo not drawn),inactive,inactive,inactive
C[C@H](CO)N1C[C@H](C)[C@@H](CN(C)S(=O)(=O)c2ccccc2)Oc2ccc(NC(=O)Nc3cccc4ccccc34)cc2C1=O,inactive,inactive,inactive
C[C@@H]1CCCCO[C@@H](CN(C)C(=O)Nc2ccc3c(c2)OCO3)[C@H](C)CN([C@@H](C)CO)C(=O)c2cc(NC(=O)CCC(F)(F)F)ccc2O1,inactive,inactive,inactive
Cc1noc(C)c1NC(=O)Nc1ccc2c(c1)C(=O)N([C@@H](C)CO)C[C@@H](C)[C@@H](CN(C)C(=O)NC(C)C)O2,inactive,inactive,inactive
Cc1noc(C)c1S(=O)(=O)Nc1ccc2c(c1)C(=O)N([C@@H](C)CO)C[C@@H](C)[C@@H](CN(C)Cc1ccc(C(=O)Nc3ccccc3N)cc1)OCCCC[C@H](C)O2,inactive,inactive,inactive
C[C@@H]1CCCCO[C@@H](CN(C)C(=O)Nc2cccc3ccccc23)[C@H](C)CN([C@H](C)CO)C(=O)c2cc(NC(=O)CCCN(C)C)ccc2O1,inactive,inactive,inactive
Cc1ccc(S(=O)(=O)Nc2ccc3c(c2)C(=O)N([C@@H](C)CO)C[C@H](C)[C@@H](CN(C)C(=O)NC2CCCCC2)OCCCC[C@@H](C)O3)cc1,inactive,inactive,inactive
NC(=O)C[C@H]1Nc2ccccc2NC1=O,inactive,inactive,inactive
CCCN(C)C[C@H]1OCCCC[C@H](C)Oc2ccc(NC(=O)Nc3ccc(C(F)(F)F)cc3)cc2C(=O)N([C@@H](C)CO)C[C@H]1C,inactive,active,active
CCOC(=O)c1c(CN2CCN(c3ccc(C)cc3)CC2)n(-c2ccccc2)c2cc(Br)c(OC)cc12,inactive,inactive,inactive
